Assay results reported in PMC4336329 (PLoS ONE, 2015).
About 2,200 (0.71%) of roughly 310,000 compounds showed an effect of 50% or more. The effect is printed as a negative number. The list shows a part of the results.

What follows are molecules tested against human ether-à-go-go-related gene (hERG) potassium channel (human, UniProt Q12809) (assay: primary screen, population patch clamp on CHO cells stably expressing hERG).
human ether-à-go-go-related gene (hERG) potassium channel, sequence (Q12809 whole entry, looked up): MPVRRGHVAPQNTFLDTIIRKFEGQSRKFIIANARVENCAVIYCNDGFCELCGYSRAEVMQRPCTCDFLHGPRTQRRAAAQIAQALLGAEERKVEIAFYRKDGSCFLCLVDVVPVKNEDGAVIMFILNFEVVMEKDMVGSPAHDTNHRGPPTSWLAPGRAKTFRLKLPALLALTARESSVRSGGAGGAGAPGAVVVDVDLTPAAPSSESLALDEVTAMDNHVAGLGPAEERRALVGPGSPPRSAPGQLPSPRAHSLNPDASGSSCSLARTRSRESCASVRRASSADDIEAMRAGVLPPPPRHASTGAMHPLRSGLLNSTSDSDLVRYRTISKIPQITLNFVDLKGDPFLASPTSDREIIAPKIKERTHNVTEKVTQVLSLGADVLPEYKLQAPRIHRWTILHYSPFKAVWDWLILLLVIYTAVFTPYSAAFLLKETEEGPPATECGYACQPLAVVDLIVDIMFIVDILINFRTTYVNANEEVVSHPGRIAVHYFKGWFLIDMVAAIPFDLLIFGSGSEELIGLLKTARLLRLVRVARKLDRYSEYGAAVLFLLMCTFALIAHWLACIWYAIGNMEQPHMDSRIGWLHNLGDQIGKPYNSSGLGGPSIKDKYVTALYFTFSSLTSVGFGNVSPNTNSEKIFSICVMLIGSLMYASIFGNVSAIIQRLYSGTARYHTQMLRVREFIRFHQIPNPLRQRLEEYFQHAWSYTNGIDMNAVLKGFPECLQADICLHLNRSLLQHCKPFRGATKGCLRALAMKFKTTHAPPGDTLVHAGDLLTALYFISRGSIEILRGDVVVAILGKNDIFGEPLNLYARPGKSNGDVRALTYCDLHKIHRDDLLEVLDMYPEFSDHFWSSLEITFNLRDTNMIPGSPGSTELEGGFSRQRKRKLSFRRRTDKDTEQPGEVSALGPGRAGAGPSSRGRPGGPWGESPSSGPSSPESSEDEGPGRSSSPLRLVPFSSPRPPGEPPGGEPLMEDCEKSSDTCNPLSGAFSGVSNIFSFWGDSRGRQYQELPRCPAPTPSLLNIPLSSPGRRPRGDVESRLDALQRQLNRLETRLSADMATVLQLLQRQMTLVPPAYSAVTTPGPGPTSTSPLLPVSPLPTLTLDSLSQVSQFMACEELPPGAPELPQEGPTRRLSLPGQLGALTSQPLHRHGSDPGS

| Structure (SMILES) | hERG current change (%, negative = inhibition) at 1uM [%] |
| --- | --- |
| CSc1ccc(NC(=O)N2CC(C)OC(C)C2)cc1 (stereo not shown) | 9.14 |
| CCOC(=O)C1CCN(C(=O)Nc2cccc(Cl)c2)CC1 | 14.7 |
| Cc1ccccc1Nc1nc(CSc2nnnn2-c2ccccc2)cs1 | 3.8 |
| COc1ccc(CN2CCN(CCC(C)C)C(CCO)C2)cc1Cn1cncn1 (stereo not shown) | 10.9 |
| CCOc1ccccc1CN1CCNC(=O)C1CC(=O)NC1CCCCCC1 (stereo not shown) | 5.32 |
| CCN1C(=O)/C(=C2/Sc3ccccc3N2CC)SC1=S | 17.7 |
| COc1ccc(C(=O)Oc2ccc(C(=S)N3CCCC3)cc2)cc1OC | 15 |
| COc1ccc(C(O)c2nc3ccccc3n2C)cc1OC (stereo not shown) | 5.28 |
| CCN1CCN(c2cc(=O)n(C3CCCCC3)c(=O)[nH]2)CC1 | 10.8 |
| CSc1nnnn1-c1ccc(C(=O)O)cc1 | 19.6 |
| CCn1cc(S(=O)(=O)c2ccc(Cl)cc2)c(=O)c2cc(OC)ccc21 | 5.94 |
| Cc1ccc2c(COC(=O)c3ccccc3OC(F)F)cc(=O)oc2c1 | 18.1 |
| O=C(CN1CCOC1=O)N1CCCC(Nc2ccc(F)c(F)c2)C1 (stereo not shown) | 15.2 |
| COc1ccc(C2C(C(=O)c3ccco3)=C(O)C(=O)N2CCc2ccccc2)cc1OC (stereo not shown) | 1.82 |
| O=C(NCC(c1cccnc1)N1CCN(c2ccccc2)CC1)c1ccco1 (stereo not shown) | 11.6 |
| NC(=O)c1ccccc1NC(=O)CC12CC3CC(CC(C3)C1)C2 | 11 |
| C/C=C/C(=O)OCC(=O)Nc1ccccc1Br | 13 |
| COCCCNC(=O)c1ccc2c3c(onc13)-c1ccccc1C2=O | 11 |
| CCCNC(=O)CN(C)S(=O)(=O)c1c(C)cc(C)cc1C | 10.1 |
| O=C(NCc1ccc2c(c1)OCO2)Nc1cccc2ccccc12 | -5.84 |

| Structure (SMILES) | hERG current change (%, negative = inhibition) at 1uM [%] |
| --- | --- |
| COc1ccccc1CNC(=O)CCCC(=O)n1nc(C)c2ccccc21 | 12.2 |
| O=c1ccc2cc([N+](=O)[O-])c(CCO)cc2o1 | -0.769 |
| CN1CCN(C(=O)c2ccc3ccccc3c2)CC1 | -5.36 |
| Cc1ccc(C2=NN(CCC#N)C(=O)CO2)cc1 | 12.1 |
| CCOc1ccc(C(=S)NC2CCCCC2)cc1OC | 11.1 |
| Cc1ccccc1Nc1nc(N)nc(CSc2nnc(-c3ccccc3)n2C)n1 | 2.19 |
| Cc1cc(NC(=O)CCC(=O)N(CC(=O)NC2CCCC2)Cc2ccc3c(c2)OCO3)no1 | 14.7 |
| O=C(CN1CCN(CCC(=O)Nc2ccccc2F)CC1)Nc1ccc(Cl)cc1 | -84.3 |
| CCOC(=O)C(C)Sc1nc2c(c(-c3cccs3)c1C#N)CCC2 (stereo not shown) | 8.31 |
| COc1ccc(OC)c(CNC(=O)C(C)n2nc(C)c3c(C)n(-c4ccccc4)nc3c2=O)c1 (stereo not shown) | -0.182 |
| Fc1cccc(Cl)c1CSc1nnc(CNc2ccccc2)o1 | 7.21 |
| O=C(CSc1nnc(-c2ccccc2O)o1)Oc1ccc(Br)cc1 | 9.68 |
| Cc1c(C(=O)N/N=C/c2cccc(O)c2)nnn1-c1nonc1N | 1.25 |
| CC(OC(=O)CN1C(=O)c2ccccc2C1=O)C(=O)NC1CCCCC1 (stereo not shown) | 10.7 |
| CCCCn1c(N)c(N(CC)C(=O)c2ccco2)c(=O)[nH]c1=O | 10.9 |
| COc1ccc(CNC(=O)Cc2csc(NC(=O)Nc3ccccc3OC)n2)cc1 | 16 |
| CCC(C)(C)NC(=O)C(c1ccc(F)cc1)N(Cc1ccco1)C(=O)c1snc(C(N)=O)c1N (stereo not shown) | 1.36 |
| Cc1ccc(/C=N/n2c(-c3ccc(Cl)cc3)n[nH]c2=S)s1 | 9.23 |
| CC(=O)c1cc(OC(=O)c2ccncc2)ccc1OC(=O)c1ccncc1 | 16.4 |
| COc1ccc(C(=O)CSc2nnc(-c3ccccn3)n2Cc2ccco2)cc1 | 3.95 |

| Structure (SMILES) | hERG current change (%, negative = inhibition) at 1uM [%] |
| --- | --- |
| COc1ccc(-n2nnnc2SCC(=O)Nc2nnc(C)s2)cc1 | 8.85 |
| Cc1c(C(=O)OCC(=O)NCCc2ccc(S(N)(=O)=O)cc2)oc2ccccc12 | 18.4 |
| COc1ccc(Cc2noc(CN(C)Cc3cccc(-n4cccn4)c3)n2)cc1OC | 5.74 |
| CCC(C(=O)NCCCN1CCN(C)CC1)n1nc(C)n2c(cc3occc32)c1=O (stereo not shown) | 6.8 |
| Cn1c(=Nc2ccccc2)sc2ccccc21 | -1.41 |
| O=C(CN(Cc1ccc(Cl)cc1)C(=O)CNS(=O)(=O)c1ccc(F)cc1)NCC1CCCO1 (stereo not shown) | 14.9 |
| CCOC(=O)c1ccc(NC(=O)C2CC2)cc1 | -10.3 |
| O=C1c2ccccc2C(=O)N1CCc1csc(-c2cccc(Cl)c2)n1 | -10.3 |
| O=[N+]([O-])c1ccc(Sc2nc3ccccc3o2)c([N+](=O)[O-])c1 | 12.1 |
| CC(C)(C)N1C(=O)c2ccccc2NC(=O)N1Cc1ccc(Br)cc1 | 10.3 |
| CC(C)c1nc(SCC(=O)Nc2ccc([N+](=O)[O-])cc2Br)n[nH]1 | -3 |
| O=C(Nc1ccccc1Cl)C1CCCN(S(=O)(=O)c2ccc(-n3cnnn3)cc2)C1 (stereo not shown) | 13 |
| O=C(Nc1ccncc1)C1CCN(S(=O)(=O)c2ccc(Cl)c(C(F)(F)F)c2)CC1 | -5.92 |
| COc1ccc(CNC(=O)C2CCN(S(=O)(=O)c3cc(OC)ccc3OC)CC2)cc1 | 3.55 |
| O=C(CSc1nnnn1C1CCCC1)Nc1ccc2c(c1)OCCO2 | 16.8 |
| CC(/C=N/Nc1ccc2nncn2n1)=C\c1ccccc1 | -11.4 |
| CN1CCN(C2=C(Cl)C(=O)N(c3cccc(Cl)c3)C2=O)CC1 | 8.88 |
| CC(C)(C)C(=O)Nc1nc(-c2ccccc2)ns1 | 0.661 |
